Assay results published in PubChem BioAssay AID360 (National Center for Advancing Translational Sciences (NCATS), 2006).
In all, about 48,000 compounds went through this assay and about 550 (1.1%) were called active. Another 4% or so got no clear call; they are omitted. Cut-off read from the data, not from the text of the source: active = potency below about 15 µM; inconclusive = mostly about 16 µM to 33 µM; inactive = weaker than that. The list shows a part of the results.

These compounds were tested against Lysosomal acid glucosylceramidase (Homo sapiens) (UniProt P04062) (assay: Glucocerebrosidase). Details: purified enzyme, resorufin glucoside fluorescence (screen aimed at inhibitors), 20 min.
How it was run: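 Wild-type enzyme at 0.2 nM final in 50mM citric acid/KH2PO4, 10mM sodium taurocholate, 0.01% tween-20, pH 5.9, with resorufin beta-D-glucopyranoside at 30 uM final. Compounds titrated, 20 min at RT, red fluorescence read; AC50 from titration.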
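Note: the screen sought inhibitors.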
Potency is the fitted concentration of half-maximal effect.

UniProt P04062, sequence (P04062 whole entry, looked up): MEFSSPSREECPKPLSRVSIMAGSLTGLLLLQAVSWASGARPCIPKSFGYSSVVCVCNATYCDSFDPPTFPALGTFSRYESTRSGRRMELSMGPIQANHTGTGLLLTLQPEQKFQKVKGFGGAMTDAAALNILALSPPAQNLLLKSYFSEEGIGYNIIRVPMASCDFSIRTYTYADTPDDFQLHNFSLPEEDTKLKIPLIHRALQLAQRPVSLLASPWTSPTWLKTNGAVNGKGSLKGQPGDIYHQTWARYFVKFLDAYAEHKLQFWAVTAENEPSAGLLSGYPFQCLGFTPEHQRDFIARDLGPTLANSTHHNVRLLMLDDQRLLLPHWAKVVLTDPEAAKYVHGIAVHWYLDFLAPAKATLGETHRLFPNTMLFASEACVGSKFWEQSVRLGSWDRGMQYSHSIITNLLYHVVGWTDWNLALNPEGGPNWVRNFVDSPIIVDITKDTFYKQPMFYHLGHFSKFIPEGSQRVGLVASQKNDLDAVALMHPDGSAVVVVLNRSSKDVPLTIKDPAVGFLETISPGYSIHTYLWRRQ

Potency, inactive:
CCOC(=O)N1CCN(C(=O)C(NC(=O)c2ccc(CC)cc2)C(C)C)CC1 (stereo not given) > 76.9 µM
CSc1nc2c(c(=O)[nH]1)C(c1ccncc1)C(C(=O)OC(C)C)=C(C)N2 (stereo not given) > 76.9 µM
CCOC(=O)c1nc(C)[nH]c1C(=O)OCC > 76.9 µM
COc1ccc(OC)c(Nc2cc(C)nc3ccccc23)c1 > 76.9 µM
COc1ccc(-c2nnc(SCC(=O)Nc3ccc(C)cc3)n2C)cc1 > 76.9 µM
Cc1nonc1NC(=O)CSc1nnc(-c2ccoc2C)n1CC(C)C > 76.9 µM
COc1cccc(-c2csc3nc[nH]c(=O)c23)c1 > 76.9 µM
CCOc1ccc2[nH]c3c(N4CCN(c5ccccn5)CC4)ncnc3c2c1 > 76.9 µM
COc1ccc(NC(=O)CSc2nnc(C(C)C)n2N)cc1 > 76.9 µM
CCCc1cc(C(=O)N2CCN(S(=O)(=O)c3ccc(OC)c(OC)c3)CC2)cs1 > 76.9 µM
c1ccc(-c2nnc(SCc3nc4ccccc4[nH]3)n2Cc2ccco2)nc1 > 76.9 µM
Nc1nonc1-c1nc2ccccc2n1CCC(=O)O > 76.9 µM
COc1ccc(-c2c3c(=O)n(C)c(=O)n(C)c3cn2NC(C)=O)cc1 > 76.9 µM
CC(=O)C1=C(O)C(=O)N(Cc2ccccc2)C1c1cccs1 (stereo not given) > 76.9 µM
Cc1ccc(S(=O)(=O)N2CCN(C(=O)CSc3nnc(C)c(=O)[nH]3)CC2)cc1 > 76.9 µM
COc1ccc2nc3oc(C(=O)N4CCN(c5ccccc5F)CC4)cc3cc2c1 > 76.9 µM
COc1c(S(=O)(=O)N2CCCCC2)ccc2c(S(=O)(=O)N3CCCCC3)cccc12
O=C(O)c1nn(-c2ccc(Cl)cc2)ccc1=O > 76.9 µM
CCOCCCNS(=O)(=O)Cc1ccccc1 > 76.9 µM
O=C(Nc1cc(C(=O)N2CCOCC2)cc(C(=O)N2CCOCC2)c1)c1cc(F)c(F)cc1Cl > 76.9 µM
COc1cccc(C2C(C(=O)c3sc(C)nc3C)=C(O)C(=O)N2CCN2CCOCC2)c1 (stereo not given) > 76.9 µM
O=C(CSc1ncccc1C(=O)O)NCCC1=CCCCC1 > 76.9 µM
Cc1ccc(S(=O)(=O)Cc2cccc(C(=O)N3CCOCC3)c2)cc1 > 76.9 µM
O=C(Cc1cccs1)Nc1ccccn1 > 76.9 µM
COc1cc(-c2c(C#N)c(N)nc3c2CCCC3)ccc1O > 76.9 µM
